Laboratory results as given in PubChem BioAssay AID504832 (National Center for Advancing Translational Sciences (NCATS), 2011).
Hit rate of the full screen: of about 310,000 compounds, about 18,000 (5.8%) were called active. Inconclusive results, whose numbers are uncertain, are shown with a selection of clear calls. The call rests on the fitted dose curve; in most records, active means well fitted inhibition curve with a large enough effect; inconclusive means small, poorly fitted or top-dose-only effect, or another doubt; inactive means no such curve, though single readings can be large or run the other way. Potencies of inconclusive entries are left out as doubtful fits.

Assay: Primary qHTS for delayed death inhibitors of the malarial parasite plastid, 48 hour incubation
Details: P. falciparum luciferase growth in erythrocytes; series mostly up to 28.7 µM; activity change, negative = inhibition: at the top concentration
In short: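 Luminescence readout; reporter = integrated firefly luciferase in P. falciparum. RBC culture at 2% hematocrit, 0.1% parasitemia final, 37 C/5% CO2; decreased signal taken as growth inhibition.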
On the % scale 0 is the no-effect control and ±100 the full control effect; potency means the concentration at half of the fitted maximal effect; tags describe the fitted curve by direction and shape.

Row | SMILES | activity change, negative = inhibition | Potency
1 | COCCNC(=O)C(=O)Nc1cc2c3c(c1)CCC(=O)N3CCC2 | inactive: 26.7% | 
2 | C/C(=N\NC(=O)c1ccc(CSc2nncn2C)cc1)c1ccc(C#N)cc1 |  | inconclusive [inhibitor, partial curve]
3 | CCOC(=O)C1=C(c2ccccc2)NC(=O)NC1c1ccc(N(C)C)cc1 (stereo not drawn) |  | inconclusive [inhibitor, single point]
4 | Cc1ccc(-c2c[n+](CC(=O)c3ccc(Br)cc3)c3n2CCCCC3)cc1 |  | active: 5.22 µM
5 | Cc1ccc2sc(N(CCCN(C)C)C(=O)c3ccc(Br)s3)nc2c1C |  | inconclusive [inhibitor, partial curve, poor fit]
6 | Nc1nc(NCC2CCCO2)nc(Nc2cccc(Cl)c2)c1[N+](=O)[O-] (stereo not drawn) |  | inconclusive [inhibitor, partial curve, poor fit]
7 | COc1ccc(C(CNC(=O)c2oc3cc(C)c(C)cc3c2C)N2CCCCC2)cc1 (stereo not drawn) |  | inconclusive [inhibitor, partial curve]
8 | CC1CCN(CCCn2c(=S)[nH]c3ccccc3c2=O)CC1 | inactive: -2.89% | 
9 | Cc1cc(C)nc(/N=C(\N)Nc2ccc(S(N)(=O)=O)cc2)n1 |  | inconclusive [inhibitor, partial curve, poor fit]
10 | CS(=O)(=O)N(CCc1ccccc1)CC(=O)N1CCN(c2ccc(F)cc2)CC1 | inactive: -15.1% | 
11 | Cc1ccc(S(=O)(=O)N2CCCC(C(=O)NCCc3ccc4c(c3)OCO4)C2)cc1 (stereo not drawn) |  | inconclusive [inhibitor, single point]
12 | COc1cccc(OC)c1C(=O)Nc1ccc2c(c1)N(S(=O)(=O)c1cccs1)CCC2 |  | inconclusive [inhibitor, partial curve]
13 | COc1ccc(C2C(C(=O)c3ccccc3)=C(C)Nc3nc4ccccc4n32)c(OC)c1 (stereo not drawn) |  | inconclusive [inhibitor, single point]
14 | CCOC(=O)c1ccc2ncc(C(=O)OCC)c(Nc3ccc(N4CCOCC4)cc3)c2c1 |  | inconclusive [inhibitor, single point]
15 | COc1ccc(CN2CCc3ccc(NC(=O)c4ccncc4)cc3C2)c(F)c1 |  | inconclusive [inhibitor, single point]
16 | COc1ccc(OC)c(N(CC(=O)Nc2ccc3c(c2)OCO3)S(=O)(=O)c2ccccc2)c1 |  | inconclusive [inhibitor, single point]
17 | COc1ccc(CCNC(=O)c2ccccc2NC(=O)C2=C(C)OCCS2)cc1OC |  | inconclusive [inhibitor, partial curve, poor fit]
18 | CCSc1nnc(NC(=O)CSc2nnc(CNC(=O)c3cc(OC)c(OC)c(OC)c3)o2)s1 | inactive: 6.63% | 
19 | CC1(C)C(c2ccccc2)=[N+]([O-])CN1O | inactive: -8.47% | 
20 | Cn1c(=O)c(=O)n(C)c2cc(N3CCCCC3)c(NS(=O)(=O)c3ccc([N+](=O)[O-])cc3)cc21 | inactive: -13.4% | 
21 | CN1CCC(=NOc2ccc([N+](=O)[O-])cc2)CC1 | inactive: 62.2% | 
22 | COc1ccc(/C=C2/S/C(=N/N=C3\CC4CCC3(C)C4(C)C)NC2=O)cc1 (stereo not drawn) |  | inconclusive [inhibitor, partial curve, poor fit]
23 | O=C(c1ccco1)N1CCN(C(c2ccccc2Cl)c2nnnn2CC2CCCO2)CC1 (stereo not drawn) |  | inconclusive [inhibitor, partial curve, poor fit]

Row | SMILES | activity change, negative = inhibition | Potency
24 | O=C(Cc1ccccc1)N/N=C/c1cc(Br)cc(Br)c1O |  | inconclusive [inhibitor, single point]
25 | COC1=C(Nc2ccccc2)C(=O)c2ccccc2C1=O |  | active: 5.86 µM
26 | COC(=O)c1ccc(OC)c(CSc2nnc(COc3ccccc3)o2)c1 | inactive: -3.03% | 
27 | Cc1ccc(S(=O)(=O)Nc2ccccc2N(C)S(=O)(=O)c2ccc(C)cc2)cc1 |  | inconclusive [inhibitor, single point]
28 | OCCN(CC(O)Cn1ccc2ccccc21)CC(O)Cn1ccc2ccccc21 (stereo not drawn) |  | inconclusive [inhibitor, single point]
29 | CCN(CC)CCC(=O)NN | inactive: 22.7% | 
30 | Cc1cc(C)n2nc(SCc3cc(=O)oc4cc(O)ccc34)nc2n1 |  | inconclusive [inhibitor, single point]
31 | COc1ccc(-c2nn(-c3ccccc3F)cc2CNCCn2nc(C)cc2C)cc1 |  | inconclusive [inhibitor, single point]
32 | COc1ccc(CC(CC(=O)O)C(=O)Nc2ccc(Cl)c(Cl)c2)cc1 (stereo not drawn) | inactive: 15.5% | 
33 | CN1CCN(c2ccccc2NC(=O)c2ccc3c(c2)OCCO3)CC1 | inactive: 8.74% | 
34 | Cc1ccc(N(CCC#N)C(=O)CCl)cc1C |  | active: 9.28 µM
35 | O=C(Nc1ccc(F)cc1)c1cccc2c1C(=O)N(Cc1ccccn1)C2 |  | inconclusive [inhibitor, single point]
36 | COc1cccc(CN2C(=O)NC3(CCCCCC3)C2=O)c1 | inactive: 8.57% | 
37 | O=c1c2ccccc2cnn1CCOc1cccc(Br)c1 |  | inconclusive [inhibitor, single point]
38 | COc1ccc(OCC(O)Cn2c(=N)n(CCN3CCCCC3)c3ccccc32)cc1 (stereo not drawn) |  | active: 4.65 µM
39 | O=[N+]([O-])c1ccccc1NCCNS(=O)(=O)c1ccc(Cl)cc1 | inactive: 45.2% | 
40 | Cn1c(SCC(=O)Nc2nccs2)nnc1-c1cccnc1 |  | inconclusive [inhibitor, single point]
41 | Cc1ccccc1NC(=O)Cn1cnc2c(oc3nc4c(cc32)COC(C)(C)C4)c1=O | inactive: 0.659% | 
42 | Cc1ccc(-c2cc(-c3ccccc3)c(C#N)c(N)n2)o1 |  | inconclusive [inhibitor, partial curve, poor fit]
43 | COc1ccc(NC(=O)CN(C)C2CCS(=O)(=O)C2)cc1 (stereo not drawn) |  | inconclusive [inhibitor, single point]
44 | CCc1cc(C(=O)COc2ccccc2F)c(O)cc1O |  | inconclusive [inhibitor, single point]
45 | COc1ccc(NC(=O)c2sc(NC(=O)C3CC3)nc2C)cc1 | inactive: 12.7% | 
46 | COc1ccc(C(=O)N/C(=C\c2ccccc2)C(=O)Nc2ccc(C(=O)O)cc2)cc1 | inactive: -1.84% | 

Row | SMILES | activity change, negative = inhibition | Potency
47 | CC(=O)c1ccc(N2CCN(C(=O)C3CCN(S(=O)(=O)c4ccc5c(c4)CC(C)N5C(=O)C4CC4)CC3)CC2)cc1 (stereo not drawn) |  | inconclusive [inhibitor, full curve]
48 | Cc1ccc(S(=O)(=O)Oc2ccccc2/C=N/Nc2ccc(C(=O)O)cc2)cc1 | inactive: 0.679% | 
49 | CCn1c(SCC(=O)Nc2nc(C)c(C)s2)nnc1-c1ccco1 |  | inconclusive [inhibitor, single point]
50 | CCOC(=O)c1cnc2c(C)cc(C)cc2c1Nc1ccc(S(=O)(=O)Nc2ncccn2)cc1 |  | inconclusive [inhibitor, partial curve]
51 | CC[n+]1c(C)n(-c2ccccc2)c2ccc(C(=O)OC)cc21 |  | inconclusive [inhibitor, full curve]
52 | Cn1c(=O)c2ccccc2n(Cc2ccccc2Cl)c1=O |  | inconclusive [inhibitor, full curve, poor fit]
53 | Cc1oc(C(C)(C)C)cc1C(=O)NCC(=O)NCC(=O)O |  | inconclusive [inhibitor, partial curve, poor fit]
54 | CCOC(=O)c1sc2nc(C)nc(NCCc3ccccn3)c2c1C |  | inconclusive [inhibitor, single point]
55 | O=C(Nc1ccc(SC(F)F)cc1)c1cc(-c2ccncc2)nc2ccccc12 |  | inconclusive [inhibitor, partial curve]
56 | CC1(OC(=O)CCc2ccccc2)C(=O)C=C2C=C(c3ccc(C#N)cc3)N(c3ccccc3)C=C2C1=O (stereo not drawn) |  | inconclusive [inhibitor, partial curve, poor fit]
57 | O=C(NCCCN1CCCCCC1)c1ccc2c(Cl)c3c(nc2c1)CCCC3 |  | inconclusive [inhibitor, partial curve, poor fit]
58 | CCOc1ccc2[nH]c(=O)c(C(c3nnnn3Cc3ccco3)N3CCC(C)CC3)cc2c1 (stereo not drawn) |  | inconclusive [inhibitor, partial curve]
59 | CC[C@@H](C)C(NC(=O)OC(C)(C)C)c1cn([C@@H](CCCCNC(=O)OC(C)(C)C)C(=O)N2CCN(C(=O)OC(C)(C)C)CC2)nn1 (stereo partly drawn) |  | inconclusive [inhibitor, single point]
60 | N#Cc1ccc(/C=C/C(=O)c2cccnc2)cc1 | inactive: 7.78% | 
61 | COc1cccc(C(=O)/C(C#N)=N/Nc2cccc(-c3ccnc(C)n3)c2)c1 |  | inconclusive [inhibitor, partial curve, poor fit]
62 | Cc1ccc(-c2cc(O)cc3sc(=O)oc23)cc1C |  | inconclusive [inhibitor, partial curve]
63 | CCOc1ccccc1C(=O)N1CCC(n2nnc3cc(C)ccc32)CC1 |  | inconclusive [inhibitor, partial curve, poor fit]
64 | Cc1ccc(S(=O)(=O)N(C)c2ccc(C(=O)Nc3c(C)n(C)n(-c4ccccc4)c3=O)cc2)cc1 | inactive: 9.78% | 
65 | CCCCN1C(N)=NC[C@@H]1Cc1ccc(O)cc1 |  | active: 10.4 µM
66 | CC(=O)c1ccc(NS(=O)(=O)c2cc3c(cc2C)N(C)CCO3)cc1 | inactive: 14.9% | 
67 | CCOC(=O)c1[nH]c(C)c(/C(O)=C2\C(=O)C(=O)N(CCCN(C)C)C2c2ccncc2)c1C (stereo not drawn) |  | inconclusive [inhibitor, single point]
68 | CC(=O)N1CCC(N(C(=O)Nc2ccc(C)c(C)c2)C2CCCC2)CC1 | inactive: 15.8% | 
